Measurements published in patent publication EP0243717A1 (priority 1986, dated 1987).
Values after ≈ are worked out from the molar mass of the structure shown. Read-outs that look alike come from different tables or passages of the source.

Experiments:
[1] = system: Treponema hyodysenteriae DJ70 P-3; conditions: for Lesion: mice with lesion/mice; for Curative ratios: Table 2
Method: Groups of seven-week old mice (CF-1) are orally infected with Treponema hyodensenteriae DJ 70 P-3 as the test pathogen, each group consisting of five mice. The mice are fasted beginning one day before the bacterial infection, and hygromycin A is administered to them in drinking water at the dosages of 60, 30, 15, 7.5, 3.7, 1.8 and 0.9 µg/ml. The bacterial infection is effected on the first and second days after fasting. The drug is administered through drinking water for six consecutive days after the first bacterial infection. On the sixth day of the administration the test animals are necropsied, and presence of Treponema hyodysenteriae in the contents of their digestive organs are determined by three days' cultivation in blood agar. As the positive control, Lincomycin (60-3.7 pg/ml) Dynamutilin, lankacidin C and olaquindox (60-7.5 µg/ml, respectively) are administered through drinking water at the concentrations indicated. As the negative control, untreated group allowed to freely drink water.

[2] = system: Trichophyton interdigitale KF 62; assay: microbe, parasite or virus in culture; conditions: Medium E
From the text: (§1) For reference, the minimum growth inhibition concentrations (MIC) to various bacteria of above five drugs and Lankacidin C are shown in Table 3.

[3] = system: Klebsiella pneumoniae KB 214 (IFO 10031); assay: microbe, parasite or virus in culture; conditions: Medium A
From the text: as §1

[4] = system: S. aureus KB 34 (FDA 209p); assay: microbe, parasite or virus in culture; conditions: Medium A
From the text: as §1

[5] = system: pasteurella hemolytica KB 281; assay: microbe, parasite or virus in culture
From the text: as §1

[6] = system: Staphylococcus aureus KB 210 (ATCC 6538p); assay: microbe, parasite or virus in culture; conditions: Medium A
From the text: as §1

[7] = system: E. coli KB 198 (ML^r,LCM^s); assay: microbe, parasite or virus in culture; conditions: Medium A
From the text: as §1

[8] = system: Micrococcus luteus KB 212 (ATCC 9341); assay: microbe, parasite or virus in culture; conditions: Medium A
From the text: as §1

S. aureus KB 285 (MRSA) = assay: microbe, parasite or virus in culture; conditions: Medium A
From the text: as §1

[9] = system: Fusobacterium varium KB 234 (ATCC 8501); assay: microbe, parasite or virus in culture; conditions: Medium B
From the text: as §1

[10] = system: A. laidlawii KB 175 (Bm-1); assay: microbe, parasite or virus in culture; conditions: Medium D
From the text: as §1

[11] = system: B. cereus KB 143 (IFO 3001); assay: microbe, parasite or virus in culture; conditions: Medium A
From the text: as §1

[12] = system: Escherichia coli KB 213 (NIHJ); assay: microbe, parasite or virus in culture; conditions: Medium A
From the text: as §1

[13] = system: B. megaterium KB 144 (IFO 12108); assay: microbe, parasite or virus in culture; conditions: Medium A
From the text: as §1

[14] = system: Haemophilus pleuropneumoniae KB 282; assay: microbe, parasite or virus in culture
From the text: as §1

[15] = system: Mycoplasma gallisepticum KB 170 (KP-13); assay: microbe, parasite or virus in culture; conditions: Medium D
From the text: as §1

[16] = system: Treponema hyodysenteriae DJ 70 P-3; assay: microbe, parasite or virus in culture; conditions: Medium F
From the text: as §1

[17] = system: Bacillus subtilis KB 211 (ATCC 6633); assay: microbe, parasite or virus in culture; conditions: Medium A
From the text: as §1

S. aureus KB 283 (MRSA) = assay: microbe, parasite or virus in culture; conditions: Medium A
From the text: as §1

[18] = system: Mycobacterium smegmatis KB 42 (ATCC 607); assay: microbe, parasite or virus in culture; conditions: Medium A
From the text: as §1

[19] = system: E. coli KB 176 (NIHJ JC-2); assay: microbe, parasite or virus in culture; conditions: Medium A
From the text: as §1

[20] = system: C. difficile KB 258 (ATCC 9689); assay: microbe, parasite or virus in culture; conditions: Medium B
From the text: as §1

[21] = system: Penicillium herquei KE 227 (IFO 4647); assay: microbe, parasite or virus in culture; conditions: Medium E
From the text: as §1

Candida albicans KF-1 = assay: microbe, parasite or virus in culture; conditions: Medium E
From the text: as §1

Saccharomyces sake KF 26 = assay: microbe, parasite or virus in culture; conditions: Medium E
From the text: as §1

Aspergillus niger KF-105 = assay: microbe, parasite or virus in culture; conditions: Medium E
From the text: as §1

[22] = system: Pseudomonas aeruginosa KB 115 (IFO 3080); assay: microbe, parasite or virus in culture; conditions: Medium A
From the text: as §1

[23] = system: S. aureus KB 199 (ML^r,TC^r); assay: microbe, parasite or virus in culture; conditions: Medium A
From the text: as §1

[24] = system: M. gallisepticum KB 171 (S-6); assay: microbe, parasite or virus in culture; conditions: Medium D
From the text: as §1

[25] = system: M. gallisepticum KB 172 (333-P); assay: microbe, parasite or virus in culture; conditions: Medium D
From the text: as §1

[26] = system: Treponema hyodysenteriae B 78; assay: microbe, parasite or virus in culture; conditions: Medium F
From the text: as §1

[27] = system: S. cerevisiae KF 237 (ATCC 9763); assay: microbe, parasite or virus in culture; conditions: Medium E
From the text: as §1

[28] = system: Acholeplasma laidlawii KB 174 (PG-8); assay: microbe, parasite or virus in culture; conditions: Medium D
From the text: as §1

M. pneumoniae KB-173 = assay: microbe, parasite or virus in culture; conditions: Medium D
From the text: as §1

[29] = system: Proteus vulgaris KB 127 (IFO 3167); assay: microbe, parasite or virus in culture; conditions: Medium A
From the text: as §1

[30] = Dosage 0.9 μg/mℓ in drinking water
[31] = Dosage 1.8 μg/mℓ in drinking water
[32] = Dosage 3.7 μg/mℓ in drinking water
[33] = Dosage 7.5 μg/mℓ in drinking water
[34] = Dosage 15 μg/mℓ in drinking water
[35] = Dosage 30 μg/mℓ in drinking water
[36] = Dosage 60 μg/mℓ in drinking water

`CC(=O)[C@H]1O[C@@H](Oc2ccc(/C=C(\C)C(=O)N[C@@H]3[C@H](O)[C@@H](O)[C@H]4OCO[C@H]4[C@@H]3O)cc2O)[C@@H](O)[C@@H]1O` [Hygromycin A, hygromycin A] was tested, and the “Noninfective (%)” value [1, 30] was 40%, the “Presence of T. hyo. 1st day” value [1, 30] was 0/5 and the “Presence of T. hyo. 3rd day” value [1, 30] was 3/5. For the same compound, the Lesion [1, 30] was 0/5, the “Noninfective (%)” value [1, 31] was 100% and the “Presence of T. hyo. 1st day” value [1, 31] was 0/5. The “Presence of T. hyo. 3rd day” value [1, 31] was 0/5, the Lesion [1, 31] was 0/5 and the “Noninfective (%)” value [1, 32] was 100%. For the same compound, the “Presence of T. hyo. 1st day” value [1, 32] was 0/5, the “Presence of T. hyo. 3rd day” value [1, 32] was 0/5 and the Lesion [1, 32] was 0/5. The “Noninfective (%)” value [1, 33] was 100%, the “Presence of T. hyo. 1st day” value [1, 33] was 0/5 and the “Presence of T. hyo. 3rd day” value [1, 33] was 0/5. The Lesion [1, 33] was 0/5, the “Noninfective (%)” value [1, 34] was 100% and the “Presence of T. hyo. 1st day” value [1, 34] was 0/5. For the same compound, the “Presence of T. hyo. 3rd day” value [1, 34] was 0/5, the Lesion [1, 34] was 0/5 and the “Noninfective (%)” value [1, 35] was 100%. For the same compound, the “Presence of T. hyo. 1st day” value [1, 35] was 0/5, the “Presence of T. hyo. 3rd day” value [1, 35] was 0/5 and the Lesion [1, 35] was 0/5. The “Noninfective (%)” value [1, 36] was 100%, the “Presence of T. hyo. 1st day” value [1, 36] was 0/5 and the “Presence of T. hyo. 3rd day” value [1, 36] was 0/5. For the same compound, the Lesion [1, 36] was 0/5, the ED50 ([1]; Table 1, CF-1 mice, administration through drinking water) was 1.1 µg/mL (≈ 2.15 µM) and the Curative ratios ([1]; Dosage 0.9 μg/mℓ) was 40%. The Curative ratios ([1]; Dosage 1.8 μg/mℓ) was 100%, the Curative ratios ([1]; Dosage 3.7 μg/mℓ) was 100% and the Curative ratios ([1]; Dosage 7.5 μg/mℓ) was 100%. It also gave a Curative ratios ([1]; Dosage 15 μg/mℓ) of 100%, a Curative ratios ([1]; Dosage 30 μg/mℓ) of 100% and a Curative ratios ([1]; Dosage 60 μg/mℓ) of 100%. For the same compound, the “Fifty-percent effective dosages (ED50)” value ([1]; list after b26, CF-1 mice, administration through drinking water) was 1.1 µg/mL, the MIC [2] was >100 µg/mL and the MIC [3] was 50 µg/mL (≈ 97.8 µM). The MIC [4] was 50 µg/mL (≈ 97.8 µM), the MIC ([5]; Medium C) was 25 µg/mL (≈ 48.9 µM) and the “effective against Pasteurella haemolytica” value ([5]; in our screening systems) was “effective”. It also gave an MIC [6] of 50 µg/mL (≈ 97.8 µM), an MIC [7] of 12.5 µg/mL (≈ 24.4 µM) and an MIC [8] of 25 µg/mL (≈ 48.9 µM). The MIC (S. aureus KB 285 (MRSA)) was 50 µg/mL (≈ 97.8 µM), the MIC [9] was 25 µg/mL (≈ 48.9 µM) and the MIC [10] was 0.78 µg/mL (≈ 1.52 µM). The MIC [11] was >100 µg/mL, the MIC [12] was 100 µg/mL (≈ 196 µM) and the MIC [13] was 100 µg/mL (≈ 196 µM). The MIC ([14]; Medium C) was 12.5 µg/mL (≈ 24.4 µM), the “effective against Haemophilus pleuropneumoniae KB282” value ([14]; in our screening systems) was “effective” and the MIC [15] was 0.78 µg/mL (≈ 1.52 µM). The MIC [16] was 3.12 µg/mL (≈ 6.1 µM), the MIC [17] was >100 µg/mL and the MIC (S. aureus KB 283 (MRSA)) was 50 µg/mL (≈ 97.8 µM). The MIC [18] was >100 µg/mL, the MIC [19] was >100 µg/mL and the MIC [20] was 25 µg/mL (≈ 48.9 µM). The MIC [21] was >100 µg/mL, the MIC (Candida albicans KF-1) was >100 µg/mL and the MIC (Saccharomyces sake KF 26) was >100 µg/mL. The MIC (Aspergillus niger KF-105) was >100 µg/mL, the MIC [22] was >100 µg/mL and the MIC [23] was 50 µg/mL (≈ 97.8 µM). For the same compound, the MIC [24] was 0.78 µg/mL (≈ 1.52 µM), the MIC [25] was 1.56 µg/mL (≈ 3.05 µM) and the MIC [26] was 6.25 µg/mL (≈ 12.2 µM). For the same compound, the MIC [27] was >100 µg/mL, the MIC [28] was 0.78 µg/mL (≈ 1.52 µM) and the MIC (M. pneumoniae KB-173) was 0.78 µg/mL (≈ 1.52 µM). For the same compound, the MIC [29] was 50 µg/mL (≈ 97.8 µM).
